The whole screen tested about 46,000 compounds, of which about 60 (0.1%) were called active. Inconclusive results (about 3%) are left out. Calls come from the whole dose curve; as a rule, active = well fitted inhibition curve with a large enough effect; inconclusive = small, poorly fitted or top-dose-only effect; inactive = no such curve, though single readings can be large or run the other way. The list shows a part of the results.

The assay in a line: Primary qHTS assay for Inhibitors of ovarian cancer metastasis using an organotypic tumor microenvironment (TME) model.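 For activity change, negative = inhibition: plate controls were DMSO wells for no effect and tomatine positive control wells for full effect.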 Note: nearly all actives have a fitted effect of over 65% in size. Particulars: SKOV3ip1-GFP adhesion/invasion on 3D omental model, fluorescence; series mostly up to 45.8 µM; activity change, negative = inhibition: at the top concentration. A digest of the protocol:
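qHTS, 4-pt dose (0.36-46 umol/L); SKOV3ip1-GFP, 1,200 cells/well, no FBS; primary omental fibroblast/mesothelial co-culture 48 h pre-grown; 2 h RT + 16 h 37 C; PBS wash, 4% PFA; GFP count 488/509 nm.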
For orientation: qHTS replaces the single test concentration by a dilution series.
Take `COc1cc(-c2nc3n(n2)C(c2ccc(F)cc2)C(C(N)=O)=C(C)N3)cc(OC)c1OC` (configuration not stated): the “activity change, negative = inhibition” value was inactive: -8.93%.
With `COc1ccc(OC)c(CNC(=O)c2cc(-c3ccc(Cl)s3)nc3ccccc23)c1`, the “activity change, negative = inhibition” value was inactive: -0.94%.
On the same count and under the same terms, to `Cc1cccn2c(Nc3ccc4c(c3)OCCO4)c(-c3ccc(Br)o3)nc12` belongs inactive: -4.25%; to `COc1ccc(-c2cc3ccc(O)c(CN4CCN(CCO)CC4)c3oc2=O)cc1OC`, inactive: 18.8%.
Regarding `CCN(C(=O)Cn1c(SCC(=O)NCc2ccccc2)nc2ccccc21)c1cccc(C)c1`, the “activity change, negative = inhibition” value is inactive: 11.1%.
As for `O=C(NCc1ccccc1Cl)c1cnc(N2CCCCC2)c2ccccc12`, the “activity change, negative = inhibition” value is inactive: -22%.
Consider `Cc1ccc(N2C(=O)c3oc4cc(C)c(C)cc4c(=O)c3C2c2cccc(O)c2)nc1` (configuration not stated), for which the “activity change, negative = inhibition” value is inactive: -4.25%.
The same measure, in the same setting: to `CCCN(CCC)C(=O)c1c[nH]c2ccc(S(=O)(=O)Nc3cc(C)cc(C)c3)cc2c1=O` belongs inactive: 0.821%; to `Cc1ccc(CNC(=O)c2cc(C3CC3)nc3c2c(C)nn3-c2cccc(Cl)c2C)cc1`, inactive: 0.779%.
Take `COc1ccc(C(=O)N2CCCCC2CCN2CCOCC2)cc1` (configuration not stated): the “activity change, negative = inhibition” value is inactive: -27.8%.
Consider `CC1=C(c2ccc(C)c(C)c2)S(=O)(=O)N=C1N1CCN(c2cccc(C)c2)C(C)C1` (configuration not stated), for which the compound was called inactive.
On to `CCOc1ccc(NC(=O)CC2Nc3cccc4cccc(c34)NC2=O)cc1` (configuration not stated), for which the compound was classed as inactive.
The same measure, in the same setting: to `Cc1c(C(=O)N2CCC(C)CC2)c(S(=O)(=O)Nc2cccc(C#N)c2)c(C)n1C` belongs “inactive”.
On to `Cc1ccc(-n2ncc(C(=O)NCc3ccc4c(c3)OCO4)c2C2CCN(C(=O)OC(C)(C)C)CC2)cc1C`, for which the “activity change, negative = inhibition” value is inactive: 16.9%.
As to `Cc1ccc(NCc2cccn2-c2nnc(N3CCC(C(=O)NCc4ccccc4C)CC3)s2)cc1`, the “activity change, negative = inhibition” value was inactive: 1.02%.
`COc1ccc(CN2CCCN(CC(=O)Nc3ccc(Br)cc3F)S2(=O)=O)cc1`: the “activity change, negative = inhibition” value is inactive: 4.28%.
With `CC(C)c1cnn2c(NCc3ccccc3)cc(NCCCCCCN)nc12`, the “activity change, negative = inhibition” value was inactive: -29.4%.
For the compound `CCOC(=O)c1c(C)[nH]c(C)c1S(=O)(=O)N(C)CC(=O)Nc1cccc(Cl)c1C`, the call was inactive.
For the compound `Cc1c(Cl)cccc1NC(=O)c1cc(-c2cccs2)on1`, the “activity change, negative = inhibition” value is inactive: -3.96%.
The same measure, in the same setting: under `CN(C(=O)CSc1nc2ccc(NC(=O)COc3ccc(F)cc3)cc2s1)c1ccccc1` stands inactive: -16%; under `Cc1cc(-c2ccc(S(=O)(=O)Nc3cccc(C(F)(F)F)c3)s2)on1`, inactive: 7.54%.
Still for that read-out and setting: to `CC(C)Sc1ncc(Cl)c(C(=O)Nc2nc3ccc(S(C)(=O)=O)cc3s2)n1` belongs inactive: -7.84%; to `Cc1c(C(=O)N(C)C)sc2c1c(=O)n(-c1ccccc1C(F)(F)F)c(=O)n2Cc1ccccc1C#N`, inactive: 0.329%; to `Cc1ccc(-c2nc3cc(Cl)ccc3o2)cc1NC(=O)c1cc2ccccc2o1`, inactive: -21.3%.
Regarding `COc1ccc(NC(=O)Cn2c(=O)n(Cc3nc(C)no3)c(=O)c3cc4c(cc32)OCO4)cc1`, the “activity change, negative = inhibition” value was inactive: 9.49%.
Turning to `COc1ccc(NC(=O)c2cc3c(=O)n(Cc4cccs4)ccc3nc2C)c(OC)c1`, the “activity change, negative = inhibition” value is inactive: -8.55%.
With `Cc1cc(C)cc(NS(=O)(=O)c2ccc(-c3cc(C)no3)s2)c1`, the compound was called inactive.
For the compound `Cc1cc(C)c(NC(=O)C2CCN(C(=O)N3CC(C)Oc4ccc(Cl)cc43)CC2)c(C)c1` (configuration not stated), the “activity change, negative = inhibition” value was inactive: 4.14%.
Same read-out and setting: under `COc1ccccc1CNC(=O)CCCn1c(=O)c2ccccc2n(CC(=O)Nc2ccc(C)cc2Cl)c1=O` stands inactive: 17.2%.
As to `Cc1ccccc1Cn1c(=O)n(CC2CCC(C(=O)N3CCC(C)CC3)CC2)c(=O)c2sccc21` (configuration not stated), the “activity change, negative = inhibition” value was inactive: -15.7%.
As for `COc1ccc(-c2nsc(NC(=O)COc3ccccc3OC)n2)cc1`, the outcome was inactive.
Turning to `CC(C)Cc1nn2c(=O)cc(COC(=O)c3cccc(NC(=O)c4cccs4)c3)nc2s1`, the “activity change, negative = inhibition” value is inactive: -3.4%.
As to `Cc1ccc(C(=O)COC(=O)CCCC(=O)Nc2cc(C(F)(F)F)ccc2Cl)cc1C`, the compound was called inactive.
Take `Cc1c(Cl)cccc1NC(=O)CSc1nc(=O)n(Cc2ccncc2)c2c1CCC2`: the compound was classed as inactive.
For `COc1cccc(CNC(=O)CSc2cc(C)[nH]c(=O)n2)c1`, the “activity change, negative = inhibition” value is inactive: 36.8%.
On to `Cn1c(=O)n(Cc2ccccc2Cl)c(=O)c2c1nc1n2CCN1c1ccccc1`, for which the result was inactive.
Consider `Cc1cc(Nc2ccccc2F)n2nc(Cc3ccc(Cl)cc3)nc2n1`, for which the result was inactive.
With `COc1cc2c(cc1OC)n(CC(=O)Nc1ccc(C)cc1C)c(=O)n1nc(-c3ccccc3)nc21`, the compound was classed as inactive.
On the same count and under the same terms, to `CCn1ccc2cc(S(=O)(=O)N3CCCN(C(=O)Nc4ccc(C)cc4Cl)CC3)ccc21` belongs “inactive”.
As for `Cc1oc(-c2ccc(C(=O)NCCCOC(C)C)cc2)nc1CS(=O)(=O)c1ccccc1`, the “activity change, negative = inhibition” value was inactive: 6.07%.
With `COC(=O)c1ccc(C2c3c(-c4ccc(Br)cc4)n[nH]c3C(=O)N2c2ccc(Cl)cc2)cc1` (configuration not stated), the compound was classed as inactive.
For the compound `CC(=O)N1CCN(C(=O)C(=O)Nc2c3c(nn2-c2ccc(Cl)cc2)CSC3)CC1`, the “activity change, negative = inhibition” value was inactive: 0.531%.
The same measure, in the same setting: under `Cc1cccc(NC(=O)CSc2ncc3c(n2)-c2cc(Cl)ccc2N(C)S3(=O)=O)c1C` stands inactive: 0.987%.
As for `CC(C)c1ccc(Nc2cc(C(=O)NCCCN(C)Cc3ccccc3)c3ccccc3n2)cc1`, the “activity change, negative = inhibition” value was inactive: 7.49%.
`O=C(COc1ccccc1)Nc1c(C(=O)N2CCN(c3ccc(F)cc3)CC2)oc2ccccc12`: the “activity change, negative = inhibition” value is inactive: 16.1%.
Consider `CC1CCN(C(=O)CN2c3ccc(Br)cc3-c3ccccc3S2(=O)=O)CC1`, for which the “activity change, negative = inhibition” value was inactive: -25.3%.
Still for that read-out and setting: to `COc1ccc(-c2nnc(SCC(=O)N3CCCCC3)o2)cc1` belongs inactive: 0.449%.

Values taken from PubChem BioAssay AID1963576 (National Center for Advancing Translational Sciences (NCATS), 2024).
